We go through 88 compounds from PubChem BioAssay AID463173 (ICCB-Longwood Screening Facility, Harvard Medical School, 2010).

Among all 52,000 compounds or so, about 4,300 (8.3%) were called active. Cut-off read from the data, not from the text of the source: active = survival mostly below about 52% (no sharp cut-off); inactive = mostly above about 56%. The list shows a part of the results.

This assay deals with DeltatarO mutant. Put plainly: S. aureus survival, RN4220 and DeltatarO strains – OD600, teichoic acid synthesis inhibitors, primary screen (AID 463173). As to conditions: S. aureus RN4220 wild type/DeltatarO growth, OD600, 18 h, active compounds read low, screened at 18.75 µg/mL (by protocol).
Regarding `Cc1ccc(C)c(Oc2nc3c(c(=O)n(C)c(=O)n3C)n2Cc2ccccc2)c1`, the survival was active: 32%.
As for `Cc1ccc(Cn2c(=O)n(Cc3ccco3)c(=O)c3oc4ccccc4c32)cc1`, the figure is inactive: 110%; as for `COc1ccc(S(=O)(=O)NCCNc2nc3cc(C)cc(C)c3cc2C#N)cc1`, inactive: 91%; as for `CCOc1ccc(OCC)c(NC(=O)c2cnc(SC)nc2-c2ccccc2)c1`, active: 32%.
As for `Cc1ccc(C)c(NC(=O)CSc2nc3c([nH]c4ccccc43)c(=O)n2-c2ccc(F)cc2)c1`, the figure is active: 32%; as for `Cc1ccc(C)c(Cn2c(=O)n(-c3ccc(Cl)cc3)c(=O)c3c(C)c(C)sc32)c1`, inactive: 76%.
On to `COc1ccc(CC(=O)NCC(c2ccc(Cl)cc2)N2CCOCC2)cc1` (stereo not drawn), for which the survival was inactive: 71%.
Regarding `Cc1nc(-c2ccccc2)sc1CCNC(=O)C(=O)Nc1ccc(F)c(Cl)c1`, the survival was active: 6%.
The result for `CCOC(=O)c1c(C)oc2c1c(O)c(N=O)c1ccccc12` reads active: 18%; that for `NC(=O)c1ccccc1NC(=O)CN1c2ccccc2S(=O)(=O)c2ccccc21`, inactive: 92%.
For `O=C(Nc1cc(-c2ccc(Cl)cc2)no1)c1ccc(F)cc1`, the survival was inactive: 71%.
With `CCCSCCCNC(=O)CN1C(=O)COc2ccc(S(=O)(=O)N3CCCC3)cc21`, the survival was inactive: 71%.
On to `C=CCNc1nc(Cl)nc(Cl)n1`, for which the survival is inactive: 99%.
On to `COCCc1nn2c(=O)cc(COC(=O)c3ccccc3C)nc2s1`, for which the survival was active: -5%.
Take `Cc1ccc(C)c(N2CCN(C(=O)c3ccc4c(=O)n(CCc5ccccc5)c(=O)[nH]c4c3)CC2)c1`: the survival is active: 55%.
For the compound `COc1cc(NC(=O)C2=CC(c3ccco3)=NS(=O)(=O)N2C)cc(OC)c1OC`, the survival was inactive: 96%.
As to `O=C(COc1ccc(F)cc1)Nc1ccccc1C(=O)OCc1cc(=O)n2ccsc2n1`, the survival was inactive: 77%.
Turning to `CCCCn1c(=O)c2oc3ccccc3c2n(Cc2ccccc2C)c1=O`, the survival is inactive: 55%.
The result for `CCOC(=O)c1[nH]c2c(c1Cc1ccccc1OC)C(=O)CC(c1ccccc1)C2` (stereo not drawn) reads inactive: 114%; that for `O=C(NCc1ccc(Cl)cc1)C1CCN(c2ncnc3c2nc2n3CCCCC2)CC1`, inactive: 61%; that for `O=C(OC(C(=O)NCc1cccs1)c1ccccc1Cl)c1ccco1` (stereo not drawn), inactive: 98%.
In the case of `CCc1ccc(NC(=O)CSc2nc3c(c(=O)[nH]2)CN(Cc2ccc(C)cc2)CC3)cc1`, the survival is inactive: 96%.
As to `CCOc1ccccc1C(=O)NCC(c1cccs1)S(=O)(=O)c1ccc(F)c(C)c1` (stereo not drawn), the survival was inactive: 67%.
As for `O=C1c2cccc3cccc(c23)C(=O)N1c1ccncc1`, the figure is inactive: 83%; as for `COCc1cc(C)nc2c1C(=O)NC(c1ccc(Br)cc1)N2Cc1ccccc1` (stereo not drawn), inactive: 69%; as for `COc1cccc(N2CCN(C(=O)Cn3nc(C)n4c(cc5c(OC)cccc54)c3=O)CC2)c1`, inactive: 90%.
As to `CCc1ccc(-n2nnc(-c3nc(-c4ccc(C)cc4)no3)c2N)cc1`, the survival is inactive: 97%.
On to `COc1cc(Cl)c(C)cc1NC(=O)Cn1c2ncccc2c(=O)n1-c1ccccc1`, for which the survival was inactive: 91%.
As for `COc1ccc(Cl)cc1C(=O)NCc1nnnn1-c1ccccc1`, the survival was inactive: 117%.
As for `COc1nnc(-c2ccc(N3CCCCC3)c(NC(=O)c3ccccc3Cl)c2)c2ccccc12`, the figure is active: -1%; as for `CCc1ccc(NC(=O)C(=O)NCC(c2cccnc2)N2CCc3ccccc3C2)cc1` (stereo not drawn), inactive: 64%.
`COc1ccc(-c2cc(C)no2)cc1S(=O)(=O)NCc1ccco1`: the survival was inactive: 117%.
In the case of `COc1ccc(-n2c(SCc3ccccc3F)nc3c([nH]c4ccccc43)c2=O)cc1OC`, the survival was inactive: 68%.
On to `COc1cc(NC(=O)c2c3c(nc4ccccc24)C(=O)N(C2CCCCC2)C3)cc(OC)c1`, for which the survival is inactive: 117%.
Regarding `CCOC(=O)c1c(-c2ccc(C)cc2)csc1NC(=O)c1cc(=O)c2cc(C)cc(C)c2o1`, the survival was inactive: 111%.
As for `NS(=O)(=O)c1ccc(S(=O)(=O)N(Cc2ccccc2F)CC2CCCO2)cc1` (stereo not drawn), the figure is inactive: 75%; as for `O=C(CSc1c2c(nc3cc(Cl)ccc13)CCCC2)N1CCN(c2ccccc2)CC1`, active: 33%; as for `CC1CCN(C(=O)Cn2cc(SCC(=O)Nc3ccccc3)c3ccccc32)CC1`, inactive: 67%.
As for `COc1cccc(-c2nc(SCC(=O)NCc3ccco3)c3c(=O)n(C)c(=O)n(C)c3n2)c1`, the survival is inactive: 73%.
The result for `CCOC(=O)c1noc2ncnc(N3CCN(c4cccc(C(F)(F)F)c4)CC3)c12` reads inactive: 82%.
Take `Cc1ccc(C(=O)Nc2nc3nc(-c4ccccc4)cc(=O)n3[nH]2)cc1`: the survival was inactive: 121%.
For the compound `CCCCCOC(=O)CSc1nc2sc3c(c2c(=O)n1-c1ccccc1)CC(C)(CC)OC3` (stereo not drawn), the survival was active: 36%.
As for `O=C(Nc1cc(-c2ccccc2F)nn1-c1ccccc1)c1ccccc1Br`, the figure is inactive: 84%; as for `Cc1ccc(S(=O)(=O)Cc2nc(-c3ccc(C(=O)NCc4ccccc4C)cc3)oc2C)cc1`, inactive: 101%.
`COc1ccc(Cn2ccn(Cc3cccc(Cl)c3)c(=O)c2=O)cc1`: the survival is inactive: 112%.
With `CC(=O)c1ccc(NC(=O)C2=CC(c3ccc(C)cc3)=NS(=O)(=O)N2C)cc1`, the survival was inactive: 67%.
As for `CCCn1cc(S(=O)(=O)c2ccc(OC)cc2)c(=O)c2cc(F)c(N3CCCC(C)C3)cc21` (stereo not drawn), the figure is inactive: 76%; as for `Cc1ccn2c(=O)cc(CSc3nnc(C)s3)nc2c1`, inactive: 77%; as for `COc1ccc(OC)c(C(=O)CSc2ncc3c(n2)-c2ccccc2N(Cc2ccccc2C)S3(=O)=O)c1`, inactive: 60%.
On to `Cc1cccc(CCn2c(=O)c3ccccc3n(CC(=O)Nc3ccccc3F)c2=O)c1`, for which the survival is inactive: 76%.
In the case of `CCN(Cc1ccccc1)Cc1c(O)ccc2c(=O)c(-c3ccc(Cl)cc3)c(C(F)(F)F)oc12`, the survival is inactive: 67%.
Turning to `Cc1ccc(C)c(N2CCN(CCCNC(=O)c3cnn(-c4ccccc4)c3C3CCN(C(=O)OC(C)(C)C)CC3)CC2)c1`, the survival was inactive: 104%.
Regarding `O=C(NCc1ccccc1Cl)c1c2c(nc3ccccc13)C(=O)N(C1CCCCC1)C2`, the survival was inactive: 92%.
On to `Cc1ccc2c(c1)N(CC(=O)N1CCCC1)C(=O)C(C)O2` (stereo not drawn), for which the survival was inactive: 91%.
As for `CCCCC(=O)Nc1ccc(OCc2cc(=O)n3c(C)csc3n2)cc1`, the figure is inactive: 102%; as for `COC(=O)CCCCCn1c(-c2ccccc2)cn2c3c(=O)n(C)c(=O)n(C)c3nc12`, inactive: 128%.
As for `COC(=O)c1oc2ccc(Cl)cc2c1C`, the survival was inactive: 65%.
On to `CC(=O)c1cccc(NC(=O)[C@H]2O[C@@H]3OC(C)(C)O[C@@H]3[C@H]3OC(C)(C)O[C@H]32)c1`, for which the survival was inactive: 117%.
As to `COc1ccc(-c2nc3scc(CCNS(=O)(=O)c4ccc(Oc5ccccc5)cc4)n3n2)cc1`, the survival is inactive: 81%.
With `CCOC(=O)c1ccc(NC(=O)C(C)Sc2nc(=O)cc(N)n2CCc2ccccc2)cc1` (stereo not drawn), the survival is inactive: 66%.
For the compound `COc1ccc(OCC(=O)N(Cc2sccc2C)C2CCS(=O)(=O)C2)cc1` (stereo not drawn), the survival is inactive: 77%.
On to `CS(=O)(=O)N(CC(=O)NCc1ccncc1)c1ccccc1`, for which the survival is inactive: 85%.
`CCN(CC)CCCNC(=O)c1cn(CC(C)C)c(=O)c2c1c1ccccc1n2C`: the survival is inactive: 153%.
With `COc1ccc(-c2nnc(SCC(=O)N3CCc4ccccc43)o2)cc1OC`, the survival was inactive: 75%.
For `Cc1ccc2nc(-c3ccsc3)c(Nc3ccc(Cl)cc3)n2c1`, the survival is inactive: 73%.
The result for `Cc1cccc(-c2noc(-c3ccccc3OCC(=O)Nc3ccccc3[N+](=O)[O-])n2)c1` reads inactive: 94%; that for `Cc1ccn2cc(CNC(=O)c3cccc(C(F)(F)F)c3)nc2c1`, inactive: 97%.
With `COc1ccccc1Nc1c2c(nc3ccc(NC(=O)c4ccccc4F)cc13)CCCC2`, the survival was inactive: 82%.
As for `COCCN=Cc1c(NCCOC)nc2ccccn2c1=O`, the figure is inactive: 103%; as for `COc1ccc(Cn2nnnc2CN2CCC(NC(=O)c3cccc(OC)c3)CC2)cc1`, inactive: 111%.
In the case of `COC(=O)c1sccc1S(=O)(=O)N(CC(=O)NCc1ccc(C)cc1)c1ccc(C)c(C)c1`, the survival was inactive: 68%.
`CCOc1ccc(N2C(=O)CC(N3CCC(O)(c4ccc(Cl)cc4)CC3)C2=O)cc1` (stereo not drawn): the survival is inactive: 86%.
For the compound `COc1ccc(CCN(Cc2nc3ccccc3c(=O)[nH]2)C(=O)C(C)C)cc1`, the survival was inactive: 101%.
As for `Cc1cc(NC(=O)c2cc(Cl)ccc2Cl)ccc1-c1cc2ccccc2oc1=O`, the figure is inactive: 121%.
For the compound `COc1cccc(N(CC(=O)N2CCC(C(N)=O)CC2)S(C)(=O)=O)c1`, the survival was inactive: 95%.
On to `NS(=O)(=O)c1ccc(NC(=O)COc2ccc(S(=O)(=O)NC3CCCCC3)cc2)cc1`, for which the survival was inactive: 75%.
`CCN(CC)C(=O)Cn1c(=O)n(Cc2ccc(C(=O)NCCCOC)cc2)c(=O)c2ccccc21`: the survival is inactive: 80%.
Regarding `Cc1ccc(C)c(N2C(=O)N(Cc3cccc(C(F)(F)F)c3)c3ccccc3S2(=O)=O)c1`, the survival is inactive: 88%.
`CCn1c2c(c(=O)n3ncc(C(=O)N4CCN(c5ccc(C(C)=O)cc5)CC4)c13)CN(Cc1ccc(OC)cc1)CC2`: the survival was inactive: 126%.
On to `Cc1ccc(C)c(NC(=O)N2CCN3CCCCC3C2)c1` (stereo not drawn), for which the survival was inactive: 69%.
Consider `COc1ccc(F)cc1S(=O)(=O)Nc1ccc2c(c1)CCCN2C(=O)c1cccs1`, for which the survival is inactive: 73%.
In the case of `COc1ccc(C(=O)CCC(=O)Nc2ccc(F)cc2F)cc1`, the survival was inactive: 84%.
As for `CCOC(=O)c1c(NC(C)=O)sc2c1CCC2`, the survival is inactive: 77%.
For the compound `CN1C(=O)c2ccccc2Sc2ccc(NC(=O)NCc3ccc(Cl)cc3)cc21`, the survival is inactive: 96%.
As for `Cc1ccc(CCNC(=O)CN2C(=O)COc3ccc(S(=O)(=O)N4CCCCCC4)cc32)cc1`, the figure is inactive: 80%.
On to `O=C(Nc1cccc(Cl)c1)c1cc(-c2ccc3c(c2)OCO3)on1`, for which the survival is inactive: 77%.
As for `COc1cc(OC)cc(C(=O)Nc2ccc3nc4n(c(=O)c3c2)CCCCC4)c1`, the figure is inactive: 95%; as for `COc1ccccc1C(=O)Oc1c(Sc2ccccc2)c(C)nn1-c1ccccc1`, inactive: 62%.
